Measured values as given in PubChem BioAssay AID1030 (National Center for Advancing Translational Sciences (NCATS), 2008).
“And” between values parts separate entries of the source, which are not always exact repeats. Identical values can stand only once. In all, about 220,000 compounds went through this assay and about 16,000 (7.3%) were called active. The shares of active, inactive and inconclusive entries below differ from those in the screen. Calls come from the whole dose curve; as a rule, active = well fitted inhibition curve with a large enough effect (not every such curve was filed as active); inconclusive = small, poorly fitted or top-dose-only effect, or another doubt; inactive = no such curve, though single readings can be large or run the other way. Potencies of inconclusive entries are doubtful fits and often do not repeat.

molecular target: Aldehyde dehydrogenase 1A1 (Homo sapiens) (UniProt P00352); experiment: qHTS Assay for Inhibitors of Aldehyde Dehydrogenase 1 (ALDH1A1); conditions: Purified ALDH1A1, NADH fluorescence, propionaldehyde substrate; series mostly up to 75.3 µM
Chain of UniProt P00352 (P00352 whole entry, looked up): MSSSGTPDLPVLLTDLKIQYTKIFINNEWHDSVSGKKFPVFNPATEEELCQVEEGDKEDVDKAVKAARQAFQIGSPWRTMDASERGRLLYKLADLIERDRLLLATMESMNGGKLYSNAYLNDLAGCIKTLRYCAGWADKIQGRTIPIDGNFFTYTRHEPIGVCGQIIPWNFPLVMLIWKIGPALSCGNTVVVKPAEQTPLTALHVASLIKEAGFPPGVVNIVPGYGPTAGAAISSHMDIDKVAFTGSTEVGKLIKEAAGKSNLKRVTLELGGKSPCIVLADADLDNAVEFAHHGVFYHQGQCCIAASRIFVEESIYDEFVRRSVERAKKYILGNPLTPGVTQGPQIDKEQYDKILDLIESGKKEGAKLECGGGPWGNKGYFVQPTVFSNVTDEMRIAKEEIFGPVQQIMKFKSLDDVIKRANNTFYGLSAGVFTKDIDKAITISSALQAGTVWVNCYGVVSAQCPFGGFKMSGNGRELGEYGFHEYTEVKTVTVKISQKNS
Potency is the fitted concentration of half-maximal effect; tags give direction and shape of the fitted curve.

SMILES	Potency
CCCc1cc(=O)[nH]c(SCc2cccc(C)c2)n1	inconclusive: 39.8 µM [inhibitor, single point]
CCOC(=O)C(=O)Nc1ccccc1C(=O)NCc1ccccc1	inactive
CC1(C)OC(c2ccccc2)=C/C(=C/C=Nc2ccccc2)O1	active: 4.47 µM
COc1ccc(N2C(=O)C3CCCCC3C2=O)cc1NC(=O)c1ccccc1 (stereo unspecified)	active: 0.891 µM
CC(C)c1nc(N2CCOCC2)c(C#N)c2c1CCC2	inconclusive: 25.1 µM [inhibitor, partial curve]
CC1CCN(C(=O)c2ccc(CSc3nc4ccncc4n3Cc3ccc(F)cc3)cc2)CC1	inactive
O=C(NC1CCCC1)c1cccc(Oc2ccccc2)c1	inactive
Cc1ccc(C(=O)NC(=S)Nc2ccc3[nH]c(=O)[nH]c3c2)c(C)c1	inactive
CCCCCC(C)n1[nH]c(=O)cc1N (stereo unspecified)	inactive
Cc1cccc(NCC(O)Cn2cnc3c2c(=O)n(C)c(=O)n3C)c1 (stereo unspecified)	inactive
Cc1nc(Sc2nnnn2C)c2c3c(sc2n1)CCC3	inconclusive: 39.8 µM [inhibitor, single point]
CC(=O)N/N=C(\C)c1cccc(NC(=O)c2cccs2)c1	inactive
Cn1c(=O)c2c(nc(SCC(=O)N3CCCCCC3)n2C)n(C)c1=O	inconclusive: 39.8 µM [inhibitor, single point]
CC(C)(C)n1nnnc1C(c1ccc2ncccc2c1)N1CCSCC1 (stereo unspecified)	inconclusive: 39.8 µM [inhibitor, single point]
CS(=O)(=O)N1CCN(Cc2ccccc2C(F)(F)F)CC1	inactive
Cc1cc(C)c2nc(NNC(=O)c3ccc(S(=O)(=O)N4CC(C)CC(C)C4)cc3)sc2c1 (stereo unspecified)	inconclusive: 39.8 µM [inhibitor, single point]
Cc1[nH]c(=O)[nH]c(=O)c1S(=O)(=O)N(C)Cc1ccccc1	inactive
O=C(N/N=C/c1ccccc1F)c1ccc(COc2ccccc2Cl)o1	inactive
CCOC(=O)c1c(NC(=O)Cn2cnc([N+](=O)[O-])n2)sc(C)c1C	active: 31.6 µM
O=C(CSc1ccc2nnc(-c3ccncc3)n2n1)NCC1CCCO1 (stereo unspecified)	inconclusive: 31.6 µM [inhibitor, partial curve]
COC(=O)C1=CN(c2ccc(OC)cc2)C=C(C(=O)OC)C1c1ccc(C)c([N+](=O)[O-])c1	inactive
Cc1cc2cc(C=O)c(Cl)nc2cc1C	inactive
CCC(=O)c1ccc(OCC(O)CN(CCc2ccccc2)Cc2ccccc2)cc1 (stereo unspecified)	inconclusive: 20 µM [inhibitor, partial curve, poor fit]

SMILES	Potency
CN1CCN(CC(=O)N2CCn3c4c(c5cc(C6CCCCC6)ccc53)CCCC42)CC1 (stereo unspecified)	inconclusive: 39.8 µM [inhibitor, single point]
O=C(Nc1nccs1)C1CCN(S(=O)(=O)c2ccc3c(c2)OCCCO3)CC1	inconclusive: 10 µM [inhibitor, partial curve]
NC(=O)c1ccccc1NC(=O)CCc1ccccc1	inactive
O=C(Nc1ccccc1)C1=C[C@H](c2ccc3c(c2)OCO3)C[C@H](OCc2ccc(CO)cc2)O1	active: 28.2 µM
COc1cc(C(=O)Nc2nc3ccc(S(=O)(=O)N4CCOCC4)cc3s2)cc(OC)c1OC	inconclusive: 39.8 µM [inhibitor, single point]
CCNC(=O)n1cc(-n2cncn2)c(-c2ccccc2)n1	inconclusive: 39.8 µM [inhibitor, single point]
Cn1c(N)c(S(=O)(=O)NCc2ccc(Cl)cc2)c(=O)n(C)c1=O	inconclusive: 7.08 µM [inhibitor, single point]
CC1(C)Cc2c(sc3nc(-c4ccccc4)oc(=O)c23)CO1	inconclusive: 35.5 µM [inhibitor, single point]
Cc1ccc(-c2nc3ncccc3o2)cc1NC(=S)NC(=O)c1ccco1	inconclusive: 39.8 µM [inhibitor, single point]
O=C(c1cnccn1)N1CCC2(CC1)CN(c1ccccn1)C2	inconclusive: 39.8 µM [inhibitor, single point]
COc1nc(C)nc2c1sc(=S)n2C	inactive
CC1(C)Cc2ccccc2C(C(Cc2ccccc2)C(N)=O)=N1 (stereo unspecified)	inactive
COc1ccc(C(CNC(=O)c2ccc3c(c2)C(=O)N(CCC(C)C)C3=O)N2CCOCC2)cc1 (stereo unspecified)	inconclusive: 5.01 µM [inhibitor, full curve]
CCOC(=O)C1CCCN(C(=O)c2ccc(Cl)c(S(=O)(=O)N3CCCCCC3)c2)C1 (stereo unspecified)	inconclusive: 39.8 µM [inhibitor, single point]
Cn1c(-c2cnn(-c3ccccc3)c2N)n[nH]c1=S	inconclusive: 15 µM [inhibitor, partial curve, poor fit]
NNCCc1ccccc1	inconclusive: 15.8 µM [inhibitor, single point] and inconclusive: 39.8 µM [inhibitor, single point] and inconclusive: 28.2 µM [inhibitor, partial curve]
Cc1cc(/C=C2\NC(=O)N(Cc3ccc(Cl)cc3)C2=O)c(C)n1C	inconclusive: 39.8 µM [inhibitor, single point]
CN(C)C(=O)Cn1c(SCC(=O)N2CCCc3ccccc32)nc2ccccc21	inconclusive: 39.8 µM [inhibitor, single point]
O=C(Oc1ccccc1)N1CCC[C@@]2(CCN(c3ncccn3)C2)C1	inconclusive: 35.5 µM [inhibitor, single point]
O=C(CSc1nc2c(c(C(F)(F)F)n1)CCc1ccccc1-2)NCc1ccco1	inconclusive: 20 µM [inhibitor, partial curve]
O=C(CCC1N=C2c3ccccc3N=C(SCc3cccc(Cl)c3)N2C1=O)NCc1ccco1 (stereo unspecified)	inconclusive: 28.2 µM [inhibitor, partial curve]
CCOC(=O)c1ccccc1NC(=O)Cc1sc(-c2cccnc2)nc1-c1ccc(C)cc1	inconclusive: 39.8 µM [inhibitor, single point]
CN(C)c1ccc(NC(=O)/C=C/c2c(Cl)cccc2Cl)cc1	inconclusive: 5.01 µM [inhibitor, full curve]
